Test results taken from the antibiotic and cytotoxicity screens of Wong et al. (2023).
The list shows a part of the results.

How the values were obtained:
HSkMC = human skeletal muscle cells; assay: cytotoxicity call (relative viability < 0.9); conditions: 10 µM
HepG2 = assay: cytotoxicity call (relative viability < 0.9); conditions: 10 µM
S. aureus RN4220 = assay: growth inhibition call (relative growth <= 0.2); conditions: 50 µM

Compound | cytotoxicity call (HSkMC) | cytotoxicity call (HepG2) | growth inhibition call (S. aureus RN4220)
COC[C@H]1CCCNC1 | inactive | inactive | inactive
C[C@@H]1CN([C@@H](C)CO)C(=O)c2cc(NC(=O)Cc3cn(C)c4ccccc34)ccc2O[C@H]1CN(C)CC1CCCCC1 | inactive | inactive | inactive
Cc1ccc(S(=O)(=O)N(C)C[C@@H]2Oc3c(NS(=O)(=O)c4ccc(F)cc4)cccc3C(=O)N([C@H](C)CO)C[C@H]2C)cc1 | inactive | inactive | inactive
C[C@H]1CCCCO[C@H](CN(C)C(=O)Nc2cccc3ccccc23)[C@@H](C)CN([C@@H](C)CO)C(=O)c2cc(NC(=O)Nc3ccc(F)cc3)ccc2O1 | inactive | inactive | inactive
C[C@H]1CCCCO[C@@H](CN(C)Cc2ccc(C(=O)O)cc2)[C@@H](C)CN([C@@H](C)CO)C(=O)c2cc(NS(=O)(=O)c3ccccc3)ccc2O1 | inactive | inactive | inactive
C[C@@H]1CCCCO[C@H](CN(C)CC2CCCCC2)[C@H](C)CN([C@H](C)CO)C(=O)c2cc(NC(=O)c3ccccc3)ccc2O1 | inactive | active | inactive
C[C@@H]1CN([C@@H](C)CO)C(=O)c2cc(C3=CCCC3)cnc2O[C@H]1CN(C)S(=O)(=O)c1cn(C)cn1 | inactive | inactive | inactive
COc1ccc2c3c(n(c2c1)C)[C@H](CO)N(C[C@]13CCN(CC1)C(=O)Nc1cccc(c1)F)C(=O)C1CCCCC1 | inactive | inactive | inactive
COCC(=O)Nc1ccc2c(c1)OC[C@@H](C)N(Cc1ccccc1C(=O)O)C[C@@H](C)[C@H](OC)CN(C)C2=O | inactive | inactive | inactive
O=C(O)/C=C/C(=O)NC1CC1 | inactive | inactive | inactive
COc1cccc(S(=O)(=O)N[C@H]2C=C[C@@H](CC(=O)NC3CCC3)O[C@H]2CO)c1 | inactive | inactive | inactive
C[C@@H]1CN([C@@H](C)CO)C(=O)c2cc(NC(=O)c3ccccc3)ccc2O[C@@H](C)CCCCO[C@H]1CN(C)C(=O)Nc1ccccc1 | inactive | inactive | inactive
O=C(C[C@H]1C[C@@H]2c3cc(NC(=O)NC4CCCC4)ccc3O[C@@H]2[C@@H](CO)O1)NCCN1CCCCC1 | inactive | inactive | inactive
NCCCCCC(=O)O | inactive | inactive | inactive
CC(=O)OC1(C(C)=O)CCC2C3C=C(C)C4=CC(=O)CCC4(C)C3CCC21C (stereo not drawn) | inactive | inactive | inactive
C[C@@H]1CCCCO[C@H](CN(C)S(=O)(=O)c2cccs2)[C@@H](C)CN([C@@H](C)CO)C(=O)c2cc(NC(=O)NC3CCCCC3)ccc2O1 | inactive | inactive | inactive
CCN1CCN(CC(=O)Nc2ccc(-c3cccc4c(=O)cc(N5CCOCC5)oc34)c3sc4ccccc4c23)CC1 | inactive | active | inactive
C[C@@H]1CCCCO[C@@H](CN(C)Cc2ccccc2)[C@@H](C)CN([C@H](C)CO)C(=O)c2cc(NC(=O)CCCCCC(=O)Nc3ccccc3N)ccc2O1 | inactive | inactive | inactive
C[C@@H]1CN([C@H](C)CO)S(=O)(=O)c2ccc(C#CC3CCCC3)cc2O[C@H]1CN(C)Cc1cncnc1 | inactive | inactive | inactive
C[C@@H]1CN([C@H](C)CO)C(=O)Cc2cc(NC(=O)c3ccncc3)ccc2O[C@@H]1CN(C)S(=O)(=O)c1cn(C)cn1 | inactive | inactive | inactive
C=CCSC1=N[C@@]2(COCc3ccc(OC)cc3)Oc3ccccc3[C@H]([C@H]2CO[Si](C)(C)C(C)(C)C)N1C(=O)c1ccccc1 | inactive | inactive | inactive
CC(C)(CO)[C@@H](O)C(=O)NCCC(=O)O | inactive | inactive | inactive
CO[C@@H]1CN(C)C(=O)c2cc(NC(=O)CC(F)(F)F)ccc2OC[C@H](C)N(C(=O)C2CCOCC2)C[C@H]1C | inactive | inactive | inactive
CN(C)CCCNC(=O)[C@@]1(Cc2ccccc2I)c2ccccc2C(=O)N(C2CCCCC2)[C@H]1c1ccc(CO)cc1 | inactive | active | inactive
COc1cc(/C=C/C(=O)O[C@H]2CC[C@]34C[C@]35CC[C@]3(C)[C@@H]([C@@H](C)CCC=C(C)C)CC[C@@]3(C)[C@@H]5CC[C@@H]4C2(C)C)ccc1O | inactive | inactive | inactive
C[C@@H]1CCCCO[C@H](CN(C)C)[C@H](C)CN([C@@H](C)CO)C(=O)c2cc(NC(=O)Nc3cccc4ccccc34)ccc2O1 | inactive | inactive | inactive
